The supplement of paper PMC11417369
Some of the results follow.

Each sequence was assayed on PfHDP1 homeodomain (GST-tagged) (assay: gcPBM binding intensity (ln(normalized median fluorescence intensity)); higher = stronger DNA binding).
Summary of the method: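 GST-fused DNA-binding domains of P. falciparum, expressed in E. coli, were applied at about 25 μg on average for 1 h to an Agilent 4 × 180k array of primer-extended double-stranded 36-bp intergenic genomic probes and negative controls. Binding intensity is the highest Masliner-normalised natural-log median intensity across replicate spots of either probe orientation, measured with Alexa488 anti-GST antibody and a 488 nm scan.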

Sequence	gcPBM binding intensity (ln)
GGTTGCTTCAGTGAATGTACATAGTGGTAAACAAGC [XGTACX_site166]	7.58
TCCTTATATTGGCACACACACACAATAAAATGAAAA [CACACA_site4715]	7.07
TGGGAGCACAGACACACACACACACCCATATATATA [CACACA_site335]	8.04
TACAAAATAAAAATAATTCTTTCAAAAAATAATAAA [XGTACX_negctrl_site368]	5.86
AGTAATATAATATAAGCACACGTGTATTTATTTAGT [CACACA_site4246]	6.76
AGTTTAATATAAAATACACACTACTCTTATAAATAT [CACACA_site6803]	6.51
ATTTTCTTTCTATGCACACGCACGTATTTGCACCCA [CACACA_site3350]	10.9
GAAATAATAAATTAAAAATCGTTTATAACATTTAAC [CACACA_negctrl_site425]	6.21
CTTTTTTTTTGATGTTGTACATATATATTATATAAT [XGTACX_site1321]	6.9
GTATATAATATTAGTGCACACACAAAAATGTACTAA [CACACA_site8112]	10.3
GAAAATTTATTTTTGGTGCATGTATTTATTTATTTT	9.03
ATTTCTAATATTTTTGCACACTAAACAATAAATTTC [CACACA_site3943]	9.98
ATATATGTTATTATTTGTACACACACATATATATCC [XGTACX_site7657]	7.14
TTTTTAATTTAAAAAAATAATATTTTATATTCCGAA [CACACA_negctrl_site108]	6.25
AAATATTTATATATATGTACACATATAATATTTTTA [XGTACX_site2338]	6.2
TATTTTTTATTTTTTTGTACATATTTGATAATTAAT [XGTACX_site316]	6.79
GTAAGCATCAAAAAAGGTACAGAAATTATAAATAAA [XGTACX_site6708]	6.18
CATTTATTTATATACACACACACAAAAAAAAAAAAA [CACACA_site7279]	6.75
TGCTATATTATTATCGCACACCGTTGATTCTAAATA [CACACA_site1207]	6.64

Sequence	gcPBM binding intensity (ln)
ATAAGTGTATAAAAATGTACGTGTATAAAAATATGT [XGTACX_site8235]	7.26
TATATATATTCTTTAAAACACACGTAAAGAAGAATT [CACACA_site2718]	6.86
AAAAAAAAAAGAAACACACACATATATATATATAAT [CACACA_site5052]	6.7
CAAAAAAACAAACACACACACACACCCATATATATA [CACACA_site3653]	6.85
TTATTTTTTCAAGAATGTACTTACGAATTGTCGTAT [XGTACX_site1363]	6.1
ATCAATACACATATATGTACATATAATAATTATCTT [XGTACX_site662]	7.86
TAATTACCATATGGTACACACATATATATATGTATA [CACACA_site3487]	7.02
TTTTTTTTTTGTAGTTGTACGAACTAGCTATTTATG [XGTACX_site692]	6.26
TTGGCATACAGACACACACACACACGCCCACATATA [CACACA_site6425]	6.84
ATATATATATATATATGTACATATATATATTTTTTA [XGTACX_site5987]	9.32
TGTTACATATTATAAATACATTAACTATTATATGTA [CACACA_negctrl_site1735]	6.25
TATATATATATATATTGTACATATTGTATATATTGT [XGTACX_site3212]	9.15
TATATATATATTTATACACACATTAGTGTATCCATG [CACACA_site5609]	8.4
TTTATAAAAAATTTTTTTTTTTTTTTTTAAATATAT [CACACA_negctrl_site146]	5.95
TTATATTAAACAAACACACACATATATATATATATA [CACACA_site2382]	9.34
TTAACAAATGGACACACACACACACCCAAAAAAAAA [CACACA_site4443]	6.77
TAAATATAAACACAAACACACACATATATATATATA [CACACA_site7978]	9.27
ATATATTATTATATATGTACTTATTTATAAATGATT [XGTACX_site7597]	6.33
AAATAGGGAATTTATGCACACAGTTAAGGGGGAAAA [CACACA_site2071]	9.1

Sequence	gcPBM binding intensity (ln)
AATAAATTAATAAGGTGTACATAAATAATTTATATA [XGTACX_site8278]	6.66
ATTTTTTTTTTTTTTTTTTTTTTTTTCTCTCTCACT [CACACA_negctrl_site1046]	6.05
CATACTCTACATAGATGTACTCATTTAAAAAAAAAA [XGTACX_site6945]	6.12
ATTCAAAAGGTTTAATGTACGTGATGTTTCACAAAT [XGTACX_site784]	6.15
AAATATATATATATAATACACACTAAAGTAACATAA [CACACA_site2870]	6.78
ATAGAAGGACATATAACACACATATATTATAAGTAT [CACACA_site5461]	6.49
TGTCGACATGTAGGTAGTACTATTAAAAATAATGAT [XGTACX_site3849]	6.55
GGATGATTAAGGGGGACACACGTTTATATATTTATA [CACACA_site4342]	7.45
TTTTTTTTTTATTCTACACACATATGTTTTTATATG [CACACA_site182]	6.67
TATATATATATATGTTGTACTTTTAATTTAAATGTA [XGTACX_site4239]	9.34
TGTTATTAAAACGTGACACACAATATATATATATAT [CACACA_site3539]	9
TTTTTTTTTAAGCAAAGGAAATCAAAATAAAAATAT [CACACA_negctrl_site719]	6.43
TTTTTTTTTTTTTTTTGTACACATAGTAAAAATTAA [XGTACX_site2410]	6.39
TTATAAATTATATATATGACCAATAATTGTGAGCAT [CACACA_negctrl_site725]	7.05
ATTTTCAAATTAAAATGTACAAATGAAAGAAAGGGA [XGTACX_site7048]	6.77
GTGAATCCTAAGTGTACACATCTTACAGATATATAT [CACACA_site4836]	7.51
TGAAATAAAATTTGTACACACATATATATATATATA [CACACA_site586]	9.3
TTCCTTCATTGGAAAAGTACACAATATTGTCGTTTA [XGTACX_site8057]	6.44
